Source: the RNAGym collection of RNA variant scans (doi:10.7554/elife.90254)
Read counts are not given, so values of variants with three or more changes are uncertain.

B1: LINE1-mini (parent)
chain: GGCAGAGCUCAACACAGCGUGGCAAAGUGGCUGUGGCUAGACUGCC

Variants of: B1
Assay: self-cleavage, relative activity (ratio to wild type); higher = more cleavage; in vitro, sequencing; the parent is a self-cleaving ribozyme
G27A G36C C46A showed a self-cleavage of 0.07.
For A25C G27C G36U, the self-cleavage was 0.05.
U28A U34A C42A gave a self-cleavage of 0.07.
Work on G27A G35C U43G yielded a self-cleavage of 0.04.
Variant U28C G30A U38A C45U C46U has a self-cleavage of 0.39.
Work on A26G G29U G40C C45A yielded a self-cleavage of 0.01.
G29A C37U A41G gave a self-cleavage of 0.07.
G27U C31U G35C gave a self-cleavage of 0.06.
Work on G29U C37U G44A yielded a self-cleavage of 0.02.
Work on G27A G29U C46U yielded a self-cleavage of 0.7.
Variant G27U G35A C37A G40A U43A has a self-cleavage of 0.06.
A25C G30C C31A showed a self-cleavage of 0.8.
For G27A C37A C45G, the self-cleavage was 0.03.
G27C U38A C46U showed a self-cleavage of 0.52.
U28G C45A C46U showed a self-cleavage of 0.17.
G29A G30U C42A C45U gave a self-cleavage of 0.09.
In the case of G27C C37G A41U C46A, the self-cleavage is reported as 0.
In the case of G27U A41U U43A, the self-cleavage is reported as 0.11.
G27U U38C C42U C46G showed a self-cleavage of 0.02.
In the case of G27U C31G G36C, the self-cleavage is reported as 0.06.
Variant A26C G29A G30U has a self-cleavage of 0.29.
Work on G27C G29C A41U yielded a self-cleavage of 0.28.
G27C A41U C45G gave a self-cleavage of 0.09.
With A26G G27C G35A C37U the self-cleavage was 0.11.
G27C C37U C42U gave a self-cleavage of 0.05.
G27U U28C C31G gave a self-cleavage of 0.02.
With G27A G30U A39U the self-cleavage was 0.33.
Work on G27A C31G U43A yielded a self-cleavage of 0.12.
With A25G C31U A39G G40A U43C the self-cleavage was 0.
With U28G U32A C37G U38A G44U the self-cleavage was 0.01.
A25G A26G C37U gave a self-cleavage of 0.05.
In the case of A25U U38A C42U C45U, the self-cleavage is reported as 0.03.
G29C G35U A41G gave a self-cleavage of 0.01.
For A26U G35A U38C, the self-cleavage was 0.03.
A25G G36A C45U gave a self-cleavage of 0.15.
Work on G27U C42A U43G yielded a self-cleavage of 0.04.
In the case of G27A U28A U43C C45U, the self-cleavage is reported as 0.07.
In the case of G27A G29C C46A, the self-cleavage is reported as 0.53.
For A26C U34C G35A U38A, the self-cleavage was 0.05.
For G27U U28G C46U, the self-cleavage was 0.12.
In the case of G27A G40A U43A, the self-cleavage is reported as 0.01.
With A25G G33C U38A C46A the self-cleavage was 0.03.
For G27C U28A G33C U34A, the self-cleavage was 0.
For A25U A39U A41U, the self-cleavage was 0.87.
In the case of G29A G33A U34G G36C, the self-cleavage is reported as 0.05.
A26U G29U C31A showed a self-cleavage of 0.05.
A26U U34C U38G showed a self-cleavage of 0.02.
G29C C42U C45A showed a self-cleavage of 0.01.
For U28A G29U G44C, the self-cleavage was 0.08.
Variant A25G G44U C46G has a self-cleavage of 0.16.
For G27A U38C C42G G44A, the self-cleavage was 0.16.
With G29U G30A A39G the self-cleavage was 0.14.
With G29A A41C C45U the self-cleavage was 0.22.
Work on A25G G40U C45G yielded a self-cleavage of 0.
Work on A25G G40U C45A yielded a self-cleavage of 0.06.
G29A U34G G44C gave a self-cleavage of 0.04.
A26U G27C C46U showed a self-cleavage of 0.21.
A25G C31G G36U C42G C46A showed a self-cleavage of 0.02.
Work on A25U G33A C37U C42A yielded a self-cleavage of 0.04.
G27U G29U G36C gave a self-cleavage of 0.05.
Variant A25G G29A U32A has a self-cleavage of 0.01.
Variant G27A G33C G36A U43A has a self-cleavage of 0.02.
Variant A26C G27U U34C A39C has a self-cleavage of 0.07.
G27U C31A G33A gave a self-cleavage of 0.13.
Work on A26U G40U C42A yielded a self-cleavage of 0.09.
Work on G27A U28G G36C yielded a self-cleavage of 0.
A25G C42G C46U gave a self-cleavage of 0.03.
In the case of A26U G33A G44A, the self-cleavage is reported as 0.13.
Work on A26U C42U C46A yielded a self-cleavage of 0.09.
In the case of A25U U38A G40A, the self-cleavage is reported as 0.16.
For G29U C31A U32G G33A, the self-cleavage was 0.06.
Work on G27C U28A U43A yielded a self-cleavage of 0.01.
Variant G29A G40A G44U C46A has a self-cleavage of 0.06.
With U28A G30U U34G the self-cleavage was 0.18.
Work on G27U C31G A41C U43C yielded a self-cleavage of 0.06.
In the case of G27A C31A A39U, the self-cleavage is reported as 0.17.
For A26U G27A U28G, the self-cleavage was 0.93.
Variant A26U G29A C37A G40A has a self-cleavage of 0.05.
In the case of A26C U32A G33A A39C, the self-cleavage is reported as 0.1.
With U28G G29C G35C G40A the self-cleavage was 0.12.
For G29U C31G U34A A39C, the self-cleavage was 0.03.
Variant G27U C42U C45A has a self-cleavage of 0.14.
In the case of G27U G29A U34C, the self-cleavage is reported as 0.01.
Work on A25C C31A U38C yielded a self-cleavage of 0.09.
G27U C31A G35A A39G showed a self-cleavage of 0.06.
In the case of U28G G30U C31U, the self-cleavage is reported as 0.51.
In the case of A26U C31U C37U, the self-cleavage is reported as 0.1.
U28C C31G A39U A41G gave a self-cleavage of 0.07.
In the case of U28C G29C U38C, the self-cleavage is reported as 0.1.
In the case of U28G G33A G36A, the self-cleavage is reported as 0.
In the case of G27C G35U C37G, the self-cleavage is reported as 0.01.
In the case of G29A A39U C45U, the self-cleavage is reported as 1.13.
Work on A26C G36A U38C yielded a self-cleavage of 0.05.
In the case of U28G U32A G44C C46U, the self-cleavage is reported as 0.04.
U28A G30C G40A gave a self-cleavage of 0.02.
Variant G29A U38G A41C has a self-cleavage of 0.01.
Variant U28A G35A A39U has a self-cleavage of 0.21.
Work on U28A U43C G44C C45G yielded a self-cleavage of 0.03.
For U28C U43G C46A, the self-cleavage was 0.2.
For G29C U34A C37U, the self-cleavage was 0.01.
Variant A25U A26G C31U A41G has a self-cleavage of 0.04.
In the case of U28C U34A G35C, the self-cleavage is reported as 0.08.
Work on A26G G33U G40A yielded a self-cleavage of 0.03.
A26C U34A C46G showed a self-cleavage of 0.18.
With G27C U28A C31G G40U the self-cleavage was 0.07.
For A25U A39G G40U C45A, the self-cleavage was 0.07.
Work on A26G G35U C37G yielded a self-cleavage of 0.07.
In the case of U28C G35A A41U, the self-cleavage is reported as 0.2.
U28A G29A C37G G40U showed a self-cleavage of 0.02.
U28A U32G C42A G44U gave a self-cleavage of 0.08.
Work on G27U A39C C45G yielded a self-cleavage of 0.05.
In the case of A25C A26U G44U, the self-cleavage is reported as 0.08.
For A25C C37U G40A, the self-cleavage was 0.16.
Variant G27U U28C G35C has a self-cleavage of 0.15.
For A26C G35C C37G, the self-cleavage was 0.39.
With G27U U32C U34C the self-cleavage was 0.06.
Variant G29A C31A C45A has a self-cleavage of 0.11.
Variant A25U C37U A41G has a self-cleavage of 0.05.
Variant A25C G36A C45G C46G has a self-cleavage of 0.03.
In the case of G27U U32A C45U, the self-cleavage is reported as 0.23.
U28G G36C A39C G40U C45U gave a self-cleavage of 0.02.
Work on A25G G30A G33C yielded a self-cleavage of 0.05.
In the case of G29C C37A C46G, the self-cleavage is reported as 0.04.
U28C G33C C45A gave a self-cleavage of 0.02.
Variant G27A U28A G30A C45U has a self-cleavage of 1.53.
Variant G27U U32G C46A has a self-cleavage of 0.04.
Work on A26U U28A C31G A39U C46A yielded a self-cleavage of 0.02.
Variant U28G U34C C37U G44U has a self-cleavage of 0.03.
A26U G30A U32C A41U gave a self-cleavage of 0.06.
A26U G30C C46G showed a self-cleavage of 0.21.
For G27C G36C U43C, the self-cleavage was 0.2.
Work on U28G G36U C37U yielded a self-cleavage of 0.02.
Work on A26C G33A C42U U43A yielded a self-cleavage of 0.05.
In the case of U28G G33U A39U C46A, the self-cleavage is reported as 0.01.
In the case of U28A G30A G44A, the self-cleavage is reported as 0.09.
U28G G30U C37U showed a self-cleavage of 0.
In the case of A25U G27U U43C, the self-cleavage is reported as 0.1.
For G29A A41U G44A, the self-cleavage was 0.23.
With A26U G27A A39G G44C the self-cleavage was 0.1.
Variant G27U G33C C45U has a self-cleavage of 0.03.
In the case of G29C G40C C45A, the self-cleavage is reported as 0.02.
A25G C31A U38A showed a self-cleavage of 0.03.
A25C U28G A41C gave a self-cleavage of 0.05.
With G29U C31A G44U the self-cleavage was 0.03.
In the case of A25C C42A U43G, the self-cleavage is reported as 0.03.
Variant A25U G27A U28A C31A has a self-cleavage of 0.81.
Work on A25U A26G G40A yielded a self-cleavage of 0.11.
For A26G G27U C37U, the self-cleavage was 0.05.
G29A G33A C46U showed a self-cleavage of 0.04.
Variant A26U G33C G36U has a self-cleavage of 0.06.
With G27U G29U U38A the self-cleavage was 0.49.
A26U G36C C37G G40U C42A showed a self-cleavage of 0.06.
A26C G33A G35C gave a self-cleavage of 0.04.
In the case of G27U G29C C45A, the self-cleavage is reported as 0.48.
With G27U G33U U34C the self-cleavage was 0.02.
A25G U38C A41G C42U gave a self-cleavage of 0.04.
For A26G U34C C37U, the self-cleavage was 0.06.
With A26U C31A C37A G40U the self-cleavage was 0.04.
In the case of G29U G33U C46A, the self-cleavage is reported as 0.1.
For A25U G27A C45G, the self-cleavage was 0.26.
With G29U G33C C37G the self-cleavage was 0.01.
In the case of G29A G33U C46A, the self-cleavage is reported as 0.05.
A26U G35C U43G showed a self-cleavage of 0.46.
In the case of A25G C31U U38A, the self-cleavage is reported as 0.44.
Variant A25C A39U C45A C46U has a self-cleavage of 0.14.
For U28G U32A G33U, the self-cleavage was 0.03.
Variant G27A G33C G36A A41C U43G has a self-cleavage of 0.01.
